About 14,000 (4.5%) of roughly 310,000 compounds showed an effect of 50% or more. Effects have a minus sign here. Some of the results follow.
Molecular target: human ether-à-go-go-related gene (hERG) potassium channel (human, UniProt Q12809)
Assay: primary screen, population patch clamp on CHO cells stably expressing hERG
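Further: peak tail current of the secondary pulse compared with the same well before compound.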

Chain of human ether-à-go-go-related gene (hERG) potassium channel (Q12809 whole entry, looked up): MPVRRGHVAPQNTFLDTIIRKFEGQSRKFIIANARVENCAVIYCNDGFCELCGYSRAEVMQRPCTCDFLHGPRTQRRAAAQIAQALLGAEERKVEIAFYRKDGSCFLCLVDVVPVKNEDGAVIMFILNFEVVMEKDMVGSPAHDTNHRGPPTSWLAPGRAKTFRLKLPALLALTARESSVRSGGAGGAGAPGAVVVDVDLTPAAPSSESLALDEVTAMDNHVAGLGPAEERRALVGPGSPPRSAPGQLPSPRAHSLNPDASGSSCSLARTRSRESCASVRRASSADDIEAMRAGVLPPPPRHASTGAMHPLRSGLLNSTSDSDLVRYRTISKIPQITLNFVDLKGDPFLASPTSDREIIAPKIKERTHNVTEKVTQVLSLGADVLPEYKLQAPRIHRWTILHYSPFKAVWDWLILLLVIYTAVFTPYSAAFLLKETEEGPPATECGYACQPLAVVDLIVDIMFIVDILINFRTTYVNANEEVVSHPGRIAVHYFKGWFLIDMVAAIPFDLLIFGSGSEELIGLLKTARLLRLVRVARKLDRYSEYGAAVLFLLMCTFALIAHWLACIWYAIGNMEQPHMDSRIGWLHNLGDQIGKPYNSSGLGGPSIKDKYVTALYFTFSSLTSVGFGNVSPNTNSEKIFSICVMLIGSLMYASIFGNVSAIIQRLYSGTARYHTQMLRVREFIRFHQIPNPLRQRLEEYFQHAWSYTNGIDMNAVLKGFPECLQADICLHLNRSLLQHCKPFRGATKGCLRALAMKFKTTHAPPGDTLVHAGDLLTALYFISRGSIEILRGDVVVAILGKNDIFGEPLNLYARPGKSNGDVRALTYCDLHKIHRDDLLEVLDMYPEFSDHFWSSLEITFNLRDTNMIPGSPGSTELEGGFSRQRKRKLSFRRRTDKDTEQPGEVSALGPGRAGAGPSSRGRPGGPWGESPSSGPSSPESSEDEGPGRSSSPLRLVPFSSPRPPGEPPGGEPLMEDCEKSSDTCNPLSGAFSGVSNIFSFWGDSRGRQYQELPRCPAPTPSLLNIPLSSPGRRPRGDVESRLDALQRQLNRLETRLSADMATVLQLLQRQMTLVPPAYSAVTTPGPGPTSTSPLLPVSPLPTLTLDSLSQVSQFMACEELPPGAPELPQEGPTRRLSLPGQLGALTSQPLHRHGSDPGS

| SMILES | hERG current change (%, negative = inhibition) at 10uM [%] |
| --- | --- |
| O=C(NCC(c1cccs1)N1CCOCC1)c1cc(S(=O)(=O)N2CCOCC2)c(Cl)cc1Cl (centres unmarked) | -9.54 |
| CCC(C)NC(=O)c1cc(-c2ccccc2O)on1 (centres unmarked) | 7.77 |
| COc1cc(/C=C(/C#N)C(=O)NCCCc2ccccc2)ccc1OCC(=O)O | 10.8 |
| CC(C(=O)c1ccc(-c2ccccc2)cc1)[n+]1cccc(NC(=O)c2ccccc2)c1.[Br-] (centres unmarked) | -48.9 |
| C=CC(=O)N=c1sc2ccccc2n1-c1ccccc1 | -6.08 |
| Cc1nc2[nH]onc2c2nccc(=O)c12 | 16.1 |
| O=C(NO)c1ccc(C(=O)N(C2CCCCC2)C2CCCCC2)cc1 | -8.38 |
| Cc1cc(N2C(=O)c3ccccc3C2=O)n(C)n1 | 9.7 |
| CCCSc1nc2c(c(=O)n(C)c(=O)n2C)n1Cc1ccc(C)cc1 | -3.8 |
| CC(C)Oc1cccc(C(=O)NC(=S)Nc2cccnc2)c1 | -31.2 |
| COc1ccc(Cc2nnc(SCC(=O)Nc3nc(C)cs3)o2)cc1 | 7.7 |
| Cc1cc(C)n(-c2ccc(NC(=O)C3CCCCN3C(=O)c3sccc3C)cc2)n1 (centres unmarked) | 14.5 |
| O=C(Nc1ccccc1)Nc1ccccc1C(=O)NCC1CC1 | 9.84 |
| COc1ccc(CC(=O)OCC(=O)c2ccc(OC)cc2)cc1 | 2.43 |
| CNc1snc(C)c1C(=O)OCC(=O)c1ccc(Cl)cc1 | 7.08 |
| Cc1ccccc1NC(=S)N1CCCCCC1 | 11.7 |
| Cc1cc2ccccc2n1CCNC(=O)C1CC1 | -14.7 |
| COCCN(C(=O)COC(=O)c1ccc(Cl)nc1)c1c(N)n(Cc2ccccc2)c(=O)[nH]c1=O | 18 |
| Cl.N=c1n(CCO)c2ccccc2n1Cc1ccccc1Cl | -20 |
| Cc1ccc(S(=O)(=O)CCC(=O)NCc2ccccc2)cc1 | 3.61 |
| c1ccc(CCc2nc3ccccc3[nH]2)cc1 | 4.83 |
| Cc1sc2ncnc(Sc3ccccc3C(=O)Nc3ccccc3Cl)c2c1C | 11.5 |

| SMILES | hERG current change (%, negative = inhibition) at 10uM [%] |
| --- | --- |
| CCCn1c2ccccc2c2cnn(CC(=O)NCCN(C)C)c(=O)c21 | -60.1 |
| CCOC(=O)CN(C(=O)COC(=O)C1(c2ccccc2)CC1)c1ccc(F)cc1 | -0.464 |
| CC1(C)Cc2c(sc3nc(SCC(=O)O)[nH]c(=O)c23)CO1 | 6.51 |
| O=C(NC(Cc1ccccc1)C(=O)O)/C(=C/c1ccc(Cl)cc1)NC(=O)c1ccco1 (centres unmarked) | 18.3 |
| CCn1c(=O)c(C(=O)NCc2ccccn2)c(O)c2ccccc21 | 6.29 |
| COc1ccccc1-c1ccc(SCc2ccc(F)cc2)nn1 | -5.58 |
| CCn1nc(-c2ccccc2)nc2c(=O)n(C)c(=O)nc1-2 | -27.6 |
| CCOC(=O)c1cc2c(=O)n3ccccc3nc2n(CC2CCCO2)c1=NC(C)=O (centres unmarked) | -1.13 |
| COc1cc2nc(N3CCN(C(=O)c4ccco4)CC3)nc(N)c2cc1OC.Cl | -35.9 |
| CCOC(=O)CC(=O)CSc1nnc(Cn2c(=O)sc3ccccc32)n1C | -4.61 |
| O=C(CCS(=O)(=O)c1ccc(Cl)cc1)Nc1nnc(-c2ccco2)o1 | 6.36 |
| Cc1nc(SCC(=O)N2CCC(Cc3ccccc3)CC2)[nH]c(=O)c1C | -25.4 |
| COc1ccc(C(=O)N2CCN(C(=O)Cc3ccccc3)CC2)cc1.O=C(O)C(=O)O | 0.269 |
| COc1ccc(CCN(C)C2CCCN(S(=O)(=O)c3ccccc3)C2)cc1OC (centres unmarked) | -77.2 |
| Oc1ccccc1N1CCN(c2ncccn2)CC1 | 10.4 |
| Cn1c(SCCC#N)nnc1-c1ccc(F)cc1 | 10.1 |
| O=C(Cn1ccnc1[N+](=O)[O-])NCc1ccccc1 | 0.861 |
| O=C(C1CC1)N1CCc2cc(S(=O)(=O)NCC3COc4ccccc4O3)ccc21 (centres unmarked) | 6.27 |
| CC(C)c1cccc(C(C)C)c1OC(=O)[C@H]1OC(C(C)(C)C)=C[C@@H]1c1ccccc1 | -6.97 |
| O=C(COc1ccc(Cl)cc1Cl)NC(=S)Nc1ccc(CN2CCOCC2)cc1 | -30.9 |
| COc1ccc(CN(CCC#N)CCC2(c3ccccc3)CC(C)N(C)CC2C)cc1OC.Cl (centres unmarked) | -8.36 |
| Cc1ccc(NC(=O)COC(=O)CCc2nc3ccccc3c(=O)[nH]2)cc1Cl | 28.9 |

Source: article PMC4336329 (PLoS ONE, 2015)
